According to patent US20260216325A1, “NOVEL IMIDAZOPYRIMIDINE COMPOUND AND USES THEREOF” (The Children's Medical Center Corporation, priority 2023, published 2026):

Experiments:
[1] = system: bone marrow derived macrophages (BMDM); assay: TNF production in bone marrow derived macrophages from WT and TLR7−/− mice; format: cell-based, mouse; conditions: 20-24 hrs
human PBMCs = assay: TNF production in human PBMCs after pre-treatment with TLR antagonists; format: cell-based
[2] = Body weight after vaccination; format: in vivo, C57BL/6 mice; conditions: 6-8 weeks old mice, rHA admixed with 100 nmol IM, up to 3 days post vaccination; listed as PVP-037.2
WT or TLR7−/− mice = format: in vivo, mouse; conditions: single dose 100 nmoles IM with rHA, 28 days post-immunization; TLR7−/− vs WT

## Cc1cnc2nc(-c3ccc(C)c(NC(=O)c4ccc(CN)cc4C(F)(F)F)c3)cn2c1 [Compound (1), 4-(Aminomethyl)-N-(2-methyl-5-(6-methylimidazo[1,2-a]pyrimidin-2-yl)phenyl)-2-(trifluoromethyl) benzamide]
[1]; 100 μM, ELISA
  TNF production in BMDM: induced TNF production
[1]; PVP compounds 100 μM, LPS 100 ng/mL
  TNF response in BMDM from TLR7−/− mice versus WT: significantly reduced
Human PBMCs; human PBMC, antagonist 1 hr, supernatants after 20-24 hrs
  activity (TNF) after treatment with ODN 2088 (TLR7/8/9 antagonist): near total loss of activity
Human PBMCs; human PBMCs, antagonist 1 hr, supernatants after 20-24 hrs
  induced TNF production with ODN 20958 (TLR7 specific antagonist): completely blocked
Human PBMCs; human PBMCs, not shown
  induced cytokine production with CU-CPT9a (selective TLR8 inhibitor): did not affect
[2]
  body weight change: No significant differences
WT or TLR7−/− mice
  rHA-specific IgG2c class switched Ab response in TLR7−/− mice: significant reduction
